# The full ranking holds about 2,900 compounds; the median of “IRF Lucia reporter activity, fold change vs agonist alone” is about 0.9, and the highest 2% start at about 2.8. This is one part of the list.
# How the values were obtained:
# RAW-Dual [1] = experiment: IRF Lucia reporter activity, fold change vs agonist alone; cytotoxicity flag (confluency mask): not cytotoxic; higher = enhanced IRF activity
# In short: (§1)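 Library stock was pin-tooled at 50 nL into 384-well plates of RAW-Dual macrophages (50,000 cells/well, DMEM), followed 1 h later by a PRR agonist, and the cells were kept at 37 °C, 5% CO2. Supernatant collected after 20 hours was read for IRF by QuantiLuc luminescence and for NF-κB by QuantiBlue absorbance at 620 nm. Reporter activity is fold change over agonist-alone wells, and a well counted as cytotoxic when its IncuCyte confluency was below 70% of agonist controls in both mask sets.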
# RAW-Dual [2] = experiment: IRF Lucia reporter activity, fold change vs agonist alone; higher = enhanced IRF activity; conditions: agonist: MPLA (TLR4) […]
# In short: as §1
# RAW-Dual [3] = experiment: IRF Lucia reporter activity, fold change vs agonist alone; cytotoxicity flag (confluency mask): cytotoxic (confluency <70% of control); higher = enhanced IRF activity
# In short: as §1
# [4] = agonist: 3'3'-cGAMP (STING) 10 ug/mL
# [5] = library stock concentration (final ~1000-fold dilution): 10 mM, cytotoxicity flag (confluency mask): not cytotoxic
# [6] = library stock concentration (final ~1000-fold dilution): 2 mM, cytotoxicity flag (confluency mask): not cytotoxic
# [7] = library stock concentration (final ~1000-fold dilution): 10 mM, cytotoxicity flag (confluency mask): cytotoxic (confluency <70% of control)
smiles,measurement,setting,value
Cn1nc(-c2cnc(N)c(-c3ccc(C(N)=O)c(F)c3)n2)nc1C1(c2ccccc2)CC1 (library stock concentration (final ~1000-fold dilution): 10 mM),IRF Lucia reporter activity,RAW-Dual [1]; [4],0.296
same,IRF Lucia reporter activity,RAW-Dual [1]; agonist: LPS (TLR4) 0.1 ug/mL,0.7
CC1Oc2cc(cnc2N)-c2c(nn(C)c2C#N)CN(C)C(=O)c2ccc(F)cc21 (centres undefined) (library stock concentration (final ~1000-fold dilution): 10 mM),IRF Lucia reporter activity,RAW-Dual [1]; [4],1.1
same,IRF Lucia reporter activity,RAW-Dual [1]; agonist: LPS (TLR4) 0.1 ug/mL,1.15
CC1Oc2cc(cnc2N)-c2c(nn(C)c2C#N)CN(C)C(=O)c2ccc(F)cc21 (centres undefined),IRF Lucia reporter activity,RAW-Dual [2]; [5],1.15
COc1cc(OCc2cccc(-c3ccccc3)c2C)cc(OC)c1CN1CCCCC1C(=O)O (centres undefined) (library stock concentration (final ~1000-fold dilution): 10 mM),IRF Lucia reporter activity,RAW-Dual [3]; [4],0.386
same,IRF Lucia reporter activity,RAW-Dual [3]; agonist: LPS (TLR4) 0.1 ug/mL,2.67
Cl.O=C1c2cccc3c2C(CCC3)CN1C1CN2CCC1CC2 (centres undefined),IRF Lucia reporter activity,"RAW-Dual [2]; library stock concentration (final ~1000-fold dilution): 10 mM water, cytotoxicity flag (confluency mask): not cytotoxic",1.26
Cl.O=C1c2cccc3c2C(CCC3)CN1C1CN2CCC1CC2 (centres undefined) (library stock concentration (final ~1000-fold dilution): 10 mM water),IRF Lucia reporter activity,RAW-Dual [1]; [4],0.725
same,IRF Lucia reporter activity,RAW-Dual [1]; agonist: LPS (TLR4) 0.1 ug/mL,0.832
C=CC(=O)Nc1cc(N2CCN(CC)CC2)ccc1Nc1cc(N(C)C(=O)Nc2c(Cl)c(OC)cc(OC)c2Cl)ncn1 (library stock concentration (final ~1000-fold dilution): 10 mM),IRF Lucia reporter activity,RAW-Dual [1]; [4],0.0728
same,IRF Lucia reporter activity,RAW-Dual [1]; agonist: LPS (TLR4) 0.1 ug/mL,0.31
O=C(N/N=C/c1c(O)ccc2ccccc12)c1ccncc1 (library stock concentration (final ~1000-fold dilution): 10 mM),IRF Lucia reporter activity,RAW-Dual [1]; [4],0.957
same,IRF Lucia reporter activity,RAW-Dual [1]; agonist: LPS (TLR4) 0.1 ug/mL,1.35
O=C(N/N=C/c1c(O)ccc2ccccc12)c1ccncc1,IRF Lucia reporter activity,RAW-Dual [2]; [5],1.51
CNC1CN(c2ccc3c(=O)c(C(=O)O)cn(-c4nccs4)c3n2)CC1OC.Cl (centres undefined) (library stock concentration (final ~1000-fold dilution): 2 mM),IRF Lucia reporter activity,RAW-Dual [1]; [4],0.426
same,IRF Lucia reporter activity,RAW-Dual [1]; agonist: LPS (TLR4) 0.1 ug/mL,0.949
CNC1CN(c2ccc3c(=O)c(C(=O)O)cn(-c4nccs4)c3n2)CC1OC.Cl (centres undefined),IRF Lucia reporter activity,RAW-Dual [2]; [6],1.31
CN(C)C/C=C/C(=O)Nc1ccc(C(=O)Nc2cccc(Nc3ncc(Cl)c(-c4c[nH]c5ccccc45)n3)c2)cc1.Cl.Cl,IRF Lucia reporter activity,RAW-Dual [2]; [7],0.0174
CN(C)C/C=C/C(=O)Nc1ccc(C(=O)Nc2cccc(Nc3ncc(Cl)c(-c4c[nH]c5ccccc45)n3)c2)cc1.Cl.Cl (library stock concentration (final ~1000-fold dilution): 10 mM),IRF Lucia reporter activity,RAW-Dual [3]; [4],0.00865
same,IRF Lucia reporter activity,RAW-Dual [3]; agonist: LPS (TLR4) 0.1 ug/mL,0.0152
Cc1coc2c1C(=O)C(=O)c1c-2ccc2c(C)cccc12 (library stock concentration (final ~1000-fold dilution): 10 mM),IRF Lucia reporter activity,RAW-Dual [1]; [4],0.767
same,IRF Lucia reporter activity,RAW-Dual [1]; agonist: LPS (TLR4) 0.1 ug/mL,0.764
Cc1coc2c1C(=O)C(=O)c1c-2ccc2c(C)cccc12,IRF Lucia reporter activity,RAW-Dual [2]; [5],0.749
Cn1cc(-c2cnn3c(N)c(Br)c(C4CCCNC4)nc23)cn1 (centres undefined),IRF Lucia reporter activity,RAW-Dual [2]; [6],1.14
Cn1cc(-c2cnn3c(N)c(Br)c(C4CCCNC4)nc23)cn1 (centres undefined) (library stock concentration (final ~1000-fold dilution): 2 mM),IRF Lucia reporter activity,RAW-Dual [1]; [4],0.493
same,IRF Lucia reporter activity,RAW-Dual [1]; agonist: LPS (TLR4) 0.1 ug/mL,0.852
COc1ccc(-c2cc3c(C)nc(N)nc3n(C3CCC(OCCO)CC3)c2=O)cn1 (centres undefined) (library stock concentration (final ~1000-fold dilution): 10 mM),IRF Lucia reporter activity,RAW-Dual [3]; [4],0.282
same,IRF Lucia reporter activity,RAW-Dual [3]; agonist: LPS (TLR4) 0.1 ug/mL,0.508
COc1ccc(-c2cc3c(C)nc(N)nc3n(C3CCC(OCCO)CC3)c2=O)cn1 (centres undefined),IRF Lucia reporter activity,RAW-Dual [2]; [7],0.387
CCC(C)SSc1ncc[nH]1 (centres undefined) (library stock concentration (final ~1000-fold dilution): 10 mM),IRF Lucia reporter activity,RAW-Dual [1]; [4],0.0255
same,IRF Lucia reporter activity,RAW-Dual [1]; agonist: LPS (TLR4) 0.1 ug/mL,0.263
CC1CCN(CCC2CCCN2S(=O)(=O)c2cccc(O)c2)CC1.Cl (centres undefined),IRF Lucia reporter activity,RAW-Dual [2]; [5],1.05
CC1CCN(CCC2CCCN2S(=O)(=O)c2cccc(O)c2)CC1.Cl (centres undefined) (library stock concentration (final ~1000-fold dilution): 10 mM),IRF Lucia reporter activity,RAW-Dual [1]; [4],1.07
same,IRF Lucia reporter activity,RAW-Dual [1]; agonist: LPS (TLR4) 0.1 ug/mL,1.07
COc1cc(Nc2nc3ccccc3nc2NS(=O)(=O)c2ccc(NC(=O)c3ccc(C)c(OC)c3)cc2)cc(OC)c1,IRF Lucia reporter activity,RAW-Dual [2]; [5],0.756
COc1cc(Nc2nc3ccccc3nc2NS(=O)(=O)c2ccc(NC(=O)c3ccc(C)c(OC)c3)cc2)cc(OC)c1 (library stock concentration (final ~1000-fold dilution): 10 mM),IRF Lucia reporter activity,RAW-Dual [1]; [4],1.01
same,IRF Lucia reporter activity,RAW-Dual [1]; agonist: LPS (TLR4) 0.1 ug/mL,0.958
O=C1CCc2cc(OCCCCc3nnnn3C3CCCCC3)ccc2N1,IRF Lucia reporter activity,RAW-Dual [2]; [5],0.939
O=C1CCc2cc(OCCCCc3nnnn3C3CCCCC3)ccc2N1 (library stock concentration (final ~1000-fold dilution): 10 mM),IRF Lucia reporter activity,RAW-Dual [1]; [4],1.05
same,IRF Lucia reporter activity,RAW-Dual [1]; agonist: LPS (TLR4) 0.1 ug/mL,0.84
CN1C2=C3N=c4ccccc4=C3CCN2C(=O)c2ccccc21.Cl,IRF Lucia reporter activity,RAW-Dual [2]; [5],1.19
CN1C2=C3N=c4ccccc4=C3CCN2C(=O)c2ccccc21.Cl (library stock concentration (final ~1000-fold dilution): 10 mM),IRF Lucia reporter activity,RAW-Dual [1]; [4],1.19
same,IRF Lucia reporter activity,RAW-Dual [1]; agonist: LPS (TLR4) 0.1 ug/mL,1.32

# Source: the supplement of paper PMC10037445
